Variants at the floor of the assay are shown more often than the library holds them.
B1: tRNA (parent)
chain: CUCUCGGUAGCCAAGUUGGUUUAAGGCGCAAGACUUUAAUUUAUCACUACGAAAUCUUGAGAUCGGGCGUUCGACUCGCCCCCGGGAGAUUUUUUCCUCGAGCAA

Variants of: B1
Test: nonsense suppression (GFP-seq) (ratio to wild type); higher = more function; SUP4oc tRNA, yeast GFP reporter sort-seq
How it was run: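 Sorted GFP/RFP bins of yeast were each Illumina-sequenced with a phred ≥30 cutoff; the cells held a genome-integrated ochre-suppressor tRNA variant from a library with ~3% random mutations, a galactose-driven GFP ochre reporter, and RFP. Culture was in raffinose/galactose medium containing 80 mg/L adenine. Nonsense suppression, termed GFPSEQ, is the median GFP/RFP of the bins weighted by each variant's estimated cell share per bin, relative to the unmutated parent tRNA, for variants reaching ≥100 reads and ≥30 cells.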

C11U U63G A74C and C11U U70C cannot be ordered by nonsense suppression: ≤ 0.026 for the first, ≤ 0.026 for the second.

C11U U71A C75A and C11U U76A cannot be ordered by nonsense suppression: ≤ 0.026 for the first, ≤ 0.026 for the second.

C11U U76C G88U and C12A cannot be ordered by nonsense suppression: ≤ 0.026 for the first, ≤ 0.026 for the second.

C12A A13C C27U and C12A A13C G18C A24U cannot be ordered by nonsense suppression: ≤ 0.026 for the first, ≤ 0.026 for the second.

C12A A13C U57G G66A and C12A A13U cannot be ordered by nonsense suppression: ≤ 0.026 for the first, ≤ 0.026 for the second.

C12A A13U G18U and C12A A14G G18U U35C G65A cannot be ordered by nonsense suppression: ≤ 0.026 for the first, ≤ 0.026 for the second.

C12A A14U A24G G61U A87C and C12A A23C cannot be ordered by nonsense suppression: ≤ 0.026 for the first, ≤ 0.026 for the second.

C12A A23C C64U U71C and C12A A23C G61U cannot be ordered by nonsense suppression: ≤ 0.026 for the first, ≤ 0.026 for the second.

C12A A23C U35A U57C and C12A A23G C27G cannot be ordered by nonsense suppression: ≤ 0.026 for the first, ≤ 0.026 for the second.

C12A A23G C81G and C12A A23G G25C cannot be ordered by nonsense suppression: ≤ 0.026 for the first, ≤ 0.026 for the second.

C12A A23G G28A and C12A A23U C72A G88U cannot be ordered by nonsense suppression: ≤ 0.026 for the first, ≤ 0.026 for the second.

C12A A24G G65C and C12A A30C C34U cannot be ordered by nonsense suppression: ≤ 0.026 for the first, ≤ 0.026 for the second.

C12A A33C and C12A A33G cannot be ordered by nonsense suppression: ≤ 0.026 for the first, ≤ 0.026 for the second.

C12A A33G G67U and C12A A54C A62G U63C C75A C80A cannot be ordered by nonsense suppression: ≤ 0.026 for the first, ≤ 0.026 for the second.

C12A A60C and C12A A60G G65A U76G G78C cannot be ordered by nonsense suppression: ≤ 0.026 for the first, ≤ 0.026 for the second.

C12A A62C U76G and C12A A62G C82G cannot be ordered by nonsense suppression: ≤ 0.026 for the first, ≤ 0.026 for the second.

C12A A62G G78A and C12A A74U C79A G86C cannot be ordered by nonsense suppression: ≤ 0.026 for the first, ≤ 0.026 for the second.

C12A A87U and C12A A89G cannot be ordered by nonsense suppression: ≤ 0.026 for the first, ≤ 0.026 for the second.

C12A C27A C77G and C12A C27G cannot be ordered by nonsense suppression: ≤ 0.026 for the first, ≤ 0.026 for the second.

C12A C27G A54C and C12A C29A cannot be ordered by nonsense suppression: ≤ 0.026 for the first, ≤ 0.026 for the second.

Compared with C12A C34G A74C, C12A C34U is higher in nonsense suppression: ≤ 0.026 for the first, 0.94 for the second.

C12A C56G A62C C81A and C12A C64A cannot be ordered by nonsense suppression: ≤ 0.026 for the first, ≤ 0.026 for the second.

C12A C77G G86C and C12A G18C cannot be ordered by nonsense suppression: ≤ 0.026 for the first, ≤ 0.026 for the second.

C12A G19C G67U U70C G84C and C12A G19C G86U cannot be ordered by nonsense suppression: ≤ 0.026 for the first, ≤ 0.026 for the second.

C12A G19U and C12A G25A cannot be ordered by nonsense suppression: ≤ 0.026 for the first, ≤ 0.026 for the second.

C12A G25C A30C A62U and C12A G25C C68G cannot be ordered by nonsense suppression: ≤ 0.026 for the first, ≤ 0.026 for the second.

C12A G26C G88A and C12A G26C U76C cannot be ordered by nonsense suppression: ≤ 0.026 for the first, ≤ 0.026 for the second.

C12A G26U U63G and C12A G28C G61A A62C cannot be ordered by nonsense suppression: ≤ 0.026 for the first, ≤ 0.026 for the second.

C12A G28U C34U G69C G88C and C12A G61A cannot be ordered by nonsense suppression: ≤ 0.026 for the first, ≤ 0.026 for the second.

C12A G61C A89C and C12A G65U C77A cannot be ordered by nonsense suppression: ≤ 0.026 for the first, ≤ 0.026 for the second.

C12A G66C and C12A G67A C72U cannot be ordered by nonsense suppression: ≤ 0.026 for the first, ≤ 0.026 for the second.

C12A G69A and C12A G69C A74U cannot be ordered by nonsense suppression: ≤ 0.026 for the first, ≤ 0.026 for the second.

C12A G84C and C12A G86A A87U cannot be ordered by nonsense suppression: ≤ 0.026 for the first, ≤ 0.026 for the second.

C12A G86C and C12A U16A G19U G84A cannot be ordered by nonsense suppression: ≤ 0.026 for the first, ≤ 0.026 for the second.

C12A U17A A33G U76A C82A and C12A U17A C27A A31U cannot be ordered by nonsense suppression: ≤ 0.026 for the first, ≤ 0.026 for the second.

C12A U17C A23G and C12A U17G U22G G67C cannot be ordered by nonsense suppression: ≤ 0.026 for the first, ≤ 0.026 for the second.

C12A U20C U76A and C12A U20G C68G G69A A89U cannot be ordered by nonsense suppression: ≤ 0.026 for the first, ≤ 0.026 for the second.

C12A U21A A89G and C12A U21A G25A cannot be ordered by nonsense suppression: ≤ 0.026 for the first, ≤ 0.026 for the second.

C12A U21G C75G and C12A U35A A54G U63A G66A cannot be ordered by nonsense suppression: ≤ 0.026 for the first, ≤ 0.026 for the second.

C12A U35C A60G and C12A U35G C81U cannot be ordered by nonsense suppression: ≤ 0.026 for the first, ≤ 0.026 for the second.

C12A U55C and C12A U57G G66C cannot be ordered by nonsense suppression: ≤ 0.026 for the first, ≤ 0.026 for the second.

For C12A U63C A87C, the nonsense suppression was ≤ 0.026.
